{"source": "paper PMC10726135", "note": "Some of the results follow. At the low end of the ranking the order means little. The protein was read in a cell extract, so binding may be indirect.", "data": [{"molecular_target": "T1, HNF4alpha8 (COS-7 nuclear extract) (UniProt P41235-5)", "T1 sequence": "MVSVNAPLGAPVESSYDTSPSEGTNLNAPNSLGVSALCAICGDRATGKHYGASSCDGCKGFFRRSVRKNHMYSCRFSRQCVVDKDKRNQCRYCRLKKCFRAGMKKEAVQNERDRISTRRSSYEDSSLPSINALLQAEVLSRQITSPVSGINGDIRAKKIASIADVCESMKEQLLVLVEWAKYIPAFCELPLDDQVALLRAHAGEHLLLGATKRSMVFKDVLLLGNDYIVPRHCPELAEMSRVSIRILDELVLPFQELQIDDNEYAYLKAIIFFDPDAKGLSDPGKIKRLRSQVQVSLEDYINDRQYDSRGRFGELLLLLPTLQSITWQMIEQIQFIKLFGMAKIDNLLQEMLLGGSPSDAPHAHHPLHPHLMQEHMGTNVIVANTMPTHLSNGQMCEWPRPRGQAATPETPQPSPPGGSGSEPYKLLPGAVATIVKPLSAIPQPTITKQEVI", "experiment": "protein-binding microarray", "details": "COS-7 nuclear extract on double-stranded Agilent 4x180k PBM; binding buffer, salt, pH and temperature not given; high values mean tight binding; double strand, one strand shown; sequences stand for … in …GCCTAGGGAGATTAGAGTATCGGTCGA", "values": [{"sequence": "AGCAGCCTCAGTGGCTCACAAATGGAGTTT", "binding signal (log2 normalized intensity)": 1.92}, {"sequence": "GATTCCACCTTAGAGGGACGAAGGTCACTA", "binding signal (log2 normalized intensity)": 4.7}, {"sequence": "GATTAGATAACATCTGGACTTTACACAGAC", "binding signal (log2 normalized intensity)": 4.72}, {"sequence": "GAAACATCTACCCTTGACAATTCCTATTCA", "binding signal (log2 normalized intensity)": -1.34}, {"sequence": "TTCCCTATCCCGCTGCTTCCACCAGGGCTA", "binding signal (log2 normalized intensity)": -1.35}, {"sequence": "CTCAGAACTACCAATGTTTACCAGCTCTGT", "binding signal (log2 normalized intensity)": -1.41}, {"sequence": "AACAAAGTCCAAATTCCTAACTATGGTTGA", "binding signal (log2 normalized intensity)": 2.05}, {"sequence": "AACCTTTCCCTCTCTCCTGGTTTGGGGCCT", "binding signal (log2 normalized intensity)": 1.37}, {"sequence": "ACTCACTATCAGGAAACTCTTTCCTAACAG", "binding signal (log2 normalized intensity)": -1.22}, {"sequence": "ATCATGAACTGAGTACTATCAGATCCACCA", "binding signal (log2 normalized intensity)": -1.06}, {"sequence": "GTAATCCCATTTCCCTTGTTTACCTTGGTG", "binding signal (log2 normalized intensity)": 1.58}, {"sequence": "AGTTGGAAAATGTCGTTTTCCCGGTTTGTT", "binding signal (log2 normalized intensity)": 1.04}, {"sequence": "TCTGCAGCCCCTTTTGGAATCCCCATCTCA", "binding signal (log2 normalized intensity)": 3.62}, {"sequence": "AAAGTCTACATTCTAGATGACCCCTCTCTA", "binding signal (log2 normalized intensity)": 4.5}, {"sequence": "AGTGAGCCTTGCCGTGCTGCGGTGGGCTCC", "binding signal (log2 normalized intensity)": -1.47}, {"sequence": "GGGTGGTGGTTACCGGCAGAGGCTGCAGAG", "binding signal (log2 normalized intensity)": -0.956}, {"sequence": "AGTGCACCTTAATAAGCACATTCCTTTCCC", "binding signal (log2 normalized intensity)": -0.98}, {"sequence": "CCCAGTATGAGCGGCGCTGACCCCGGGAGC", "binding signal (log2 normalized intensity)": 3.67}, {"sequence": "GCCTCATGGACTTTGAAGGAGATTCCTGTG", "binding signal (log2 normalized intensity)": 2.03}, {"sequence": "AGATGAGTTTCTTCACTGACGAAACTCACA", "binding signal (log2 normalized intensity)": -0.96}, {"sequence": "GTCAATAGGGCAGGGGGGAGATGAAATCTG", "binding signal (log2 normalized intensity)": -1.36}, {"sequence": "TATCTCCAGCAAACGTTCTTCTCTAACCCT", "binding signal (log2 normalized intensity)": -0.322}, {"sequence": "TGGATGGGGGCGTTCCCCGAGCGAGCTCCG", "binding signal (log2 normalized intensity)": -1.34}, {"sequence": "AAGGTCAGGACCACACATTCCATTACTGCA", "binding signal (log2 normalized intensity)": -1.28}, {"sequence": "TGCACTTTACGTAAGATAAGGTGAACATAC", "binding signal (log2 normalized intensity)": 1.09}, {"sequence": "CCTAAAACATCAAATACCTCCAAGAGGTTT", "binding signal (log2 normalized intensity)": -1.08}, {"sequence": "AAAGGAGACTTTTAAGTGGGGTCAAAGGGT", "binding signal (log2 normalized intensity)": 5.97}, {"sequence": "AACTCACAGTCTGGCAGTGAAGGTTCAGTG", "binding signal (log2 normalized intensity)": 1.67}, {"sequence": "GCCGGCCCGCAGGTCAGTCGACCCTCTCTG", "binding signal (log2 normalized intensity)": 2.12}, {"sequence": "TAGGTCCCTGCTTCCAAGTCTCAGCACCTG", "binding signal (log2 normalized intensity)": -1.37}, {"sequence": "TGGACTCCTCTTATCTTCAGGTATCCTTAA", "binding signal (log2 normalized intensity)": 0.683}, {"sequence": "GCAGTCAGGACTCTGGGACCGCAGGGGGCT", "binding signal (log2 normalized intensity)": -1.4}, {"sequence": "GAGACACCTGGCCAAGTACAGCCTGTGCTA", "binding signal (log2 normalized intensity)": -1.32}, {"sequence": "ACAAAGGGGGAGGGAGATAGAGAAAGAAAA", "binding signal (log2 normalized intensity)": -1.38}, {"sequence": "ATGACCTGGACAGGTCCAAGGTTCTCCAGG", "binding signal (log2 normalized intensity)": 2.68}, {"sequence": "AACAGAGTCTCCGAGGAACCCAGACTGCAT", "binding signal (log2 normalized intensity)": -1.27}, {"sequence": "ACCTTTGGGCTAAAAAGGAAGCTGTGTGTG", "binding signal (log2 normalized intensity)": 1.52}, {"sequence": "TTTTCCTCTAACCACTTTGAAATAGTGACC", "binding signal (log2 normalized intensity)": 2.64}, {"sequence": "GAAGCTTGAAGGAGTATATGGCTAAGCGAA", "binding signal (log2 normalized intensity)": -1.22}, {"sequence": "AGGTTGCAGTGAGCTGTGATTGCGCCACTG", "binding signal (log2 normalized intensity)": -0.901}, {"sequence": "GGAACCCCACCCCCACGCCCCCCAGCGGAA", "binding signal (log2 normalized intensity)": 7.38}, {"sequence": "GTCAAACTGATCAGAAGTGGTTACATCTAT", "binding signal (log2 normalized intensity)": 0.492}, {"sequence": "ATACCCAGAGTGATCTTTGAAACATAACAG", "binding signal (log2 normalized intensity)": 2.16}, {"sequence": "TCAAACAGCTTCGCCTCCTCCAAGCATACC", "binding signal (log2 normalized intensity)": -1.29}, {"sequence": "CGAGTCAAGGGTCAATCCTCTCTTTGGAAT", "binding signal (log2 normalized intensity)": 2.97}, {"sequence": "AGAACAAGGTAGCCACAGAATGACTCTTGT", "binding signal (log2 normalized intensity)": -0.89}, {"sequence": "GTGGATGCTGGAATGAGGGAGGCAGCCACC", "binding signal (log2 normalized intensity)": -1.31}, {"sequence": "TTTGTGTTTGTCCCTTTCTTCTTCTGCCAC", "binding signal (log2 normalized intensity)": 1.68}, {"sequence": "TGGAGGCTGGAGCTCCTGGGCCAAAGGGCA", "binding signal (log2 normalized intensity)": 4.63}, {"sequence": "GAAAGTCTGACCCTTGACCAAGCAGCTGTT", "binding signal (log2 normalized intensity)": 4.43}, {"sequence": "CTTCTGCCCCCGCAGACCCAGTCTTAGGGA", "binding signal (log2 normalized intensity)": 4.12}, {"sequence": "CCCATCTTCCAGAAATGCCAAGATCAGGGC", "binding signal (log2 normalized intensity)": -1.25}, {"sequence": "AGGTGGGGGCCGCCCATTGGGATCCATATC", "binding signal (log2 normalized intensity)": -1.25}, {"sequence": "TCTAGGTCACCACCTTTTTTGGCCTTTACC", "binding signal (log2 normalized intensity)": 1.95}, {"sequence": "TATCAAGGGTGAGGGATTTTCAGTATACTG", "binding signal (log2 normalized intensity)": -1.14}, {"sequence": "CTTCCCCACCCCCTCTCCTCCCTCGGCCGG", "binding signal (log2 normalized intensity)": 5.78}, {"sequence": "ATGCTGCTCTCCCACTCCCCCTGCTGGACA", "binding signal (log2 normalized intensity)": 3.93}, {"sequence": "CTGGAACCAACATGGCAGACAGCAGTCTGA", "binding signal (log2 normalized intensity)": -1.28}, {"sequence": "GAAGTAAAACAGGTAGAGAGCTGTCTGCTG", "binding signal (log2 normalized intensity)": -1.3}, {"sequence": "CTTAAAAAAAAAGAACAGCTTTGGTATTAC", "binding signal (log2 normalized intensity)": 0.456}, {"sequence": "ATGGCCACCCTTCAGCAAATAGTGGGAGGT", "binding signal (log2 normalized intensity)": -0.839}, {"sequence": "TTTTATTATATTGAATTCCTGGAAATCCCG", "binding signal (log2 normalized intensity)": -0.0113}, {"sequence": "ATCTCTTGACTCTTCCCATCTAACTGCCCC", "binding signal (log2 normalized intensity)": 4.39}, {"sequence": "GCTCTCAGAATAGCAAATCTGTTACGAGTG", "binding signal (log2 normalized intensity)": -0.823}, {"sequence": "CGGCAGAGCACCTGGATAAGCCAGATAATT", "binding signal (log2 normalized intensity)": -1.18}, {"sequence": "AATGACATTTTGGACTACTTCATGTCCTGT", "binding signal (log2 normalized intensity)": 1.22}, {"sequence": "AGTATAATAAAGTGGCAACCCTTGACCCCA", "binding signal (log2 normalized intensity)": 6.42}, {"sequence": "GCAAGACCAAACAAAATTAATGTGCCTGCC", "binding signal (log2 normalized intensity)": -1.34}, {"sequence": "ACAAGGCAGACTTGGATTTTCTCATCCCAG", "binding signal (log2 normalized intensity)": -0.845}, {"sequence": "TTGTAGGGGGAGGGTAAATATAGTTAAAGC", "binding signal (log2 normalized intensity)": -1.29}, {"sequence": "CCTGGCTTGTTTGCAAAGCAACTCCTCTGT", "binding signal (log2 normalized intensity)": -0.585}, {"sequence": "GTGAGCAGGTGTGTGGCATCTTGGGGTCAA", "binding signal (log2 normalized intensity)": 4.53}, {"sequence": "TGAGGCCTGGCCGAGGTTGCCCAGCTATTA", "binding signal (log2 normalized intensity)": -1.14}, {"sequence": "ACCGTAGCCTGACCATCACCACTTCAAGCT", "binding signal (log2 normalized intensity)": -1.28}, {"sequence": "TTTTAGATTAGGAGAGGGAGAGTGAGTGAG", "binding signal (log2 normalized intensity)": -1.39}, {"sequence": "GGCAGTGTGGCACCCTCCCTTCCCGGGGAG", "binding signal (log2 normalized intensity)": -1.22}, {"sequence": "GAGAGGAGAAAGAGCAATCTCTCATCTGCC", "binding signal (log2 normalized intensity)": -1.26}, {"sequence": "TTATCATAAGTCAGCCTGGCTGAAGACCTG", "binding signal (log2 normalized intensity)": -0.92}, {"sequence": "ACAGAGAGAAAGCAGTGACCATCCCAAAGC", "binding signal (log2 normalized intensity)": -1.34}, {"sequence": "AAGTAAGCAGACACTGAAAGATGGTATGCT", "binding signal (log2 normalized intensity)": -1.29}, {"sequence": "GCTGCCAATGCAAATCCCAGAGTTCAAAGG", "binding signal (log2 normalized intensity)": 5.13}, {"sequence": "TGCTTAACTATGTTTATCAGAGCAAAGTTC", "binding signal (log2 normalized intensity)": 4.15}, {"sequence": "GACCCTGAAAACAGGGCAAGGAACGGAATG", "binding signal (log2 normalized intensity)": 0.939}, {"sequence": "GCGTTTTTCTTTGTACTGCTTCCAAAACAT", "binding signal (log2 normalized intensity)": 0.626}, {"sequence": "TAGAAGGCTTAAGATAAGGGACATCAACAA", "binding signal (log2 normalized intensity)": -1.45}, {"sequence": "TTCCATGCAGCAGCATCCAGCCCCAGGCTG", "binding signal (log2 normalized intensity)": -1.32}, {"sequence": "TCTGTACAAAACATTTGGTGTAAGCACTTG", "binding signal (log2 normalized intensity)": 0.477}, {"sequence": "ACCTACAGCTGGGGCCACCTTTTCAGCTTC", "binding signal (log2 normalized intensity)": -1.29}, {"sequence": "TCCCTCCCCTGTGCAAACTTTTTCCTTTTC", "binding signal (log2 normalized intensity)": 1.89}, {"sequence": "CCTAGAGTTACAGTCACTCCCTATCAACCA", "binding signal (log2 normalized intensity)": -1.34}, {"sequence": "GGAGGCTGGGGCCTCCTGGCTGGGCAGGCT", "binding signal (log2 normalized intensity)": -1.37}, {"sequence": "TGCCTAGTGGAAGGTATGGAGCTAAACAAT", "binding signal (log2 normalized intensity)": -1.32}, {"sequence": "AGCTTCAGGGATCAAATCCTAACATGCTGC", "binding signal (log2 normalized intensity)": -1.35}]}]}
